# Source: the supplement of paper PMC8728848
# The list shows a part of the results.
# How the values were obtained:
# Test in all cases: glycan array binding signal (z-score within array); higher = stronger binding
# Conditions in all cases: glycan notation: IUPAC condensed, linker removed
# [1] = target: Neu5Ac(a2-6)Gal(b1-4)GlcNAc
# Summary of the method: (§1)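 The Consortium for Functional Glycomics database supplied 3228 glycan arrays, of which those lacking an available protein sequence were dropped. The binding signal, a within-array Z-score, was averaged across arrays of the same protein sequence and across linkers. Negative scores can be read as non-binding.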
# [2] = target: Neu5Ac(a2-6)Gal(b1-4)GlcNAc(b1-2)Man(a1-3)[Gal(b1-4)GlcNAc(b1-2)Man(a1-6)]Man(b1-4)GlcNAc(b1-4)GlcNAc
# Summary of the method: as §1
# [3] = target: Neu5Ac(a2-6)Gal(b1-4)GlcNAc(b1-2)Man(a1-3)[GlcNAc(b1-2)Man(a1-6)]Man(b1-4)GlcNAc(b1-4)GlcNAc
# Summary of the method: as §1
# [4] = target: Neu5Ac(a2-6)Gal(b1-4)GlcNAc(b1-2)Man(a1-3)[GlcNAc(b1-2)Man(b1-4)GlcNAc(b1-2)Man(a1-6)]Man(b1-4)GlcNAc(b1-4)GlcNAc
# Summary of the method: as §1
# [5] = target: Neu5Ac(a2-6)Gal(b1-4)GlcNAc(b1-2)Man(a1-3)[Neu5Ac(a2-6)Gal(b1-4)GlcNAc(b1-2)Man(a1-6)]Man(b1-4)GlcNAc(b1-4)GlcNAc
# Summary of the method: as §1
# [6] = target: Neu5Ac(a2-6)Gal(b1-4)GlcNAc(b1-2)Man(a1-6)[Gal(b1-4)GlcNAc(b1-2)Man(a1-3)]Man(b1-4)GlcNAc(b1-4)GlcNAc
# Summary of the method: as §1
# [7] = target: Neu5Ac(a2-6)Gal(b1-4)GlcNAc(b1-2)Man(a1-6)[GlcNAc(b1-2)Man(a1-3)]Man(b1-4)GlcNAc(b1-4)GlcNAc
# Summary of the method: as §1
# [8] = target: Neu5Ac(a2-6)Gal(b1-4)GlcNAc(b1-3)Gal(b1-4)GlcNAc
# Summary of the method: as §1
# [9] = target: Neu5Ac(a2-6)Gal(b1-4)GlcNAc(b1-3)Gal(b1-4)[Fuc(a1-3)]GlcNAc(b1-3)Gal(b1-4)[Fuc(a1-3)]GlcNAc
# Summary of the method: as §1
# [10] = target: Neu5Ac(a2-6)Gal(b1-4)GlcNAc6S
# Summary of the method: as §1
# Neu5Ac(a2-6)GalNAc = target: Neu5Ac(a2-6)GalNAc
# Summary of the method: as §1
# [11] = target: Neu5Ac(a2-6)GalNAc(b1-4)GlcNAc
# Summary of the method: as §1
# Neu5Ac(a2-8)Neu5Ac = target: Neu5Ac(a2-8)Neu5Ac
# Summary of the method: as §1
# [12] = target: Neu5Ac(a2-8)Neu5Ac(a2-3)Gal(b1-4)Glc
# Summary of the method: as §1
# [13] = target: Neu5Ac(a2-8)Neu5Ac(a2-3)[GalNAc(b1-4)]Gal(b1-4)Glc
# Summary of the method: as §1
# [14] = target: Neu5Ac(a2-8)Neu5Ac(a2-8)Neu5Ac
# Summary of the method: as §1
# [15] = target: Neu5Ac(a2-8)Neu5Ac(a2-8)Neu5Ac(a2-3)Gal(b1-4)Glc
# Summary of the method: as §1
# [16] = target: Neu5Ac(a2-8)Neu5Ac(a2-8)Neu5Ac(a2-3)[GalNAc(b1-4)]Gal(b1-4)Glc
# Summary of the method: as §1
# [17] = target: Neu5Ac(a2-8)Neu5Ac(a2-8)Neu5Ac(a2-8)Neu5Ac(a2-3)[GalNAc(b1-4)]Gal(b1-4)Glc
# Summary of the method: as §1
# [18] = target: Neu5Ac(b2-6)Gal(b1-4)GlcNAc
# Summary of the method: as §1
# Neu5Ac(b2-6)GalNAc = target: Neu5Ac(b2-6)GalNAc
# Summary of the method: as §1
# [19] = target: Neu5Ac9Ac(a2-6)Gal(b1-4)GlcNAc
# Summary of the method: as §1
# [20] = target: Neu5Gc(a2-3)Gal(b1-3)GlcNAc
# Summary of the method: as §1
# [21] = target: Neu5Gc(a2-3)Gal(b1-3)[Fuc(a1-4)]GlcNAc
# Summary of the method: as §1
# Neu5Gc(a2-3)Gal(b1-4)Glc = target: Neu5Gc(a2-3)Gal(b1-4)Glc
# Summary of the method: as §1
# [22] = target: Neu5Gc(a2-3)Gal(b1-4)GlcNAc
# Summary of the method: as §1
# [23] = target: Neu5Gc(a2-3)Gal(b1-4)[Fuc(a1-3)]GlcNAc
# Summary of the method: as §1
# [24] = target: Neu5Gc(a2-6)Gal(b1-4)GlcNAc
# Summary of the method: as §1
# Neu5Gc(a2-6)GalNAc = target: Neu5Gc(a2-6)GalNAc
# Summary of the method: as §1
# [25] = target: Neu5Gc(b2-6)Gal(b1-4)GlcNAc
# Summary of the method: as §1
binder,measurement,setting,value
"mLPHN-1 (Mus musculus), Q80TR1 (protein) MARLAAALWSLCVTTVLVTSATQGLSRAGLPFGLMRRELACEGYPIELRCPGSDVIMVENANYGRTDDKICDADPFQMENVQCYLPDAFKIMSQRCNNRTQCVVVAGSDAFPDPCPGTYKYLEVQYDCVPYIFVCPGTLQKVLEPTSTHESEHQSGAWCKDPLQAGDRIYVMPWIPYRTDTLTEYASWEDYVAARHTTTYRLPNRVDGTGFVVYDGAVFYNKERTRNIVKYDLRTRIKSGETVINTANYHDTSPYRWGGKTDIDLAVDENGLWVIYATEGNNGRLVVSQLNPYTLRFEGTWETGYDKRSASNAFMVCGVLYVLRSVYVDDDSEAAGNRVDYAFNTNANREEPVSLAFPNPYQFVSSVDYNPRDNQLYVWNNYFVVRYSLEFGPPDPSAGPATSPPLSTTTTARPTPLTSTASPAATTPLRRAPLTTHPVGAINQLGPDLPPATAPAPSTRRPPAPNLHVSPELFCEPREVRRVQWPATQQGMLVERPCPKGTRGIASFQCLPALGLWNPRGPDLSNCTSPWVNQVAQKIKSGENAANIASELARHTRGSIYAGDVSSSVKLMEQLLDILDAQLQALRPIERESAGKNYNKMHKRERTCKDYIKAVVETVDNLLRPEALESWKDMNATEQVHTATMLLDVLEEGAFLLADNVREPARFLAAKQNVVLEVTVLNTEGQVQELVFPQEYPSENSIQLSANTIKQNSRNGVVKVVFILYNNLGLFLSTENATVKLAGEAGTGGPGGASLVVNSQVIAASINKESSRVFLMDPVIFTVAHLEAKNHFNANCSFWNYSERSMLGYWSTQGCRLVESNKTHTTCACSHLTNFAVLMAHREIYQGRINELLLSVITWVGIVISLVCLAICISTFCFLRGLQTDRNTIHKNLCINLFLAELLFLVGIDKTQYEVACPIFAGLLHYFFLAAFSWLCLEGVHLYLLLVEVFESEYSRTKYYYLGGYCFPALVVGIAAAIDYRSYGTEKACWLRVDNYFIWSFIGPVSFVIVVNLVFLMVTLHKMIRSSSVLKPDSSRLDNIKSWALGAIALLFLLGLTWAFGLLFINKESVVMAYLFTTFNAFQGVFIFVFHCALQKKVHKEYSKCLRHSYCCIRSPPGGTHGSLKTSAMRSNTRYYTGTQSRIRRMWNDTVRKQTESSFMAGDINSTPTLNRGTMGNHLLTNPVLQPRGGTSPYNTLIAESVGFNPSSPPVFNSPGSYREPKHPLGGREACGMDTLPLNGNFNNSYSLRSGDFPPGDGGPEPPRGRNLADAAAFEKMIISELVHNNLRGASGGAKGPPPEPPVPPVPGVSEDEAGGPGSADRAEIELLYKALEEPLLLPRAQSVLYQSDLDESESCTAEDGATSRPLSSPPGRDSLYASGANLRDSPSYPDSSPEGPNEALPPPPPAPPGPPEIYYTSRPPALVARNPLQGYYQVRRPSHEGYLAAPSLEGPGPDGDGQMQLVTSL",glycan array binding signal (z-score),[1],0.157
same,glycan array binding signal (z-score),[2],0.107
same,glycan array binding signal (z-score),[3],1.19
same,glycan array binding signal (z-score),[4],0.001
same,glycan array binding signal (z-score),[5],-0.1
same,glycan array binding signal (z-score),[6],-0.234
same,glycan array binding signal (z-score),[7],-0.261
same,glycan array binding signal (z-score),[8],-0.422
same,glycan array binding signal (z-score),[9],0.625
same,glycan array binding signal (z-score),[10],-0.041
same,glycan array binding signal (z-score),Neu5Ac(a2-6)GalNAc,-0.327
same,glycan array binding signal (z-score),[11],-0.337
same,glycan array binding signal (z-score),Neu5Ac(a2-8)Neu5Ac,-0.267
same,glycan array binding signal (z-score),[12],-0.474
same,glycan array binding signal (z-score),[13],-0.319
same,glycan array binding signal (z-score),[14],-0.576
same,glycan array binding signal (z-score),[15],-0.189
same,glycan array binding signal (z-score),[16],-0.152
same,glycan array binding signal (z-score),[17],-0.546
same,glycan array binding signal (z-score),[18],-0.4
same,glycan array binding signal (z-score),Neu5Ac(b2-6)GalNAc,-0.39
same,glycan array binding signal (z-score),[19],-0.172
same,glycan array binding signal (z-score),[20],-0.2
same,glycan array binding signal (z-score),[21],-0.044
same,glycan array binding signal (z-score),Neu5Gc(a2-3)Gal(b1-4)Glc,-0.203
same,glycan array binding signal (z-score),[22],-0.312
same,glycan array binding signal (z-score),[23],-0.24
same,glycan array binding signal (z-score),[24],-0.172
same,glycan array binding signal (z-score),Neu5Gc(a2-6)GalNAc,1.3
same,glycan array binding signal (z-score),[25],0.242
